Out of some 120,000 compounds screened, about 5,300 (4.4%) were called active. The inconclusive results got no clear call from the source; some entries with a clear call stand among them for comparison. Calls come from the whole dose curve; as a rule, active = well fitted inhibition curve with a large enough effect; inconclusive = small, poorly fitted or top-dose-only effect; inactive = no such curve, though single readings can be large or run the other way. Potencies beside an inconclusive call are fits to weak or partial responses and may not hold up.
Assay: qHTS Primary assay for Inhibitors of Plasmodium falciparum Dd2 growth in vitro; note: nearly all actives have a fitted effect of over 65% in size
Conditions: P. falciparum Dd2 growth, SYBR Green, 72 h; series mostly up to 28.9 µM
Method in brief: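 Readout: SYBR Green fluorescence, 485 nm excitation, 535 nm emission, after ~16 h lysis at 37C. Before that, Dd2-infected red cells (2.5% hematocrit) grew 72 h with compound, 29 uM top final concentration.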
Potency is the fitted concentration of half-maximal effect; tags give direction and shape of the fitted curve.

SMILES	Potency
CN(C)c1ccc(C(=O)N2CCCC(Cc3noc(-c4ccncc4)n3)C2)cc1 (configuration not stated)	inconclusive: 17.8 µM [inhibitor, single point]
Cc1noc(C)c1S(=O)(=O)N1CCC2(CC1)N(CC1CC1)C(=O)CS2=O (configuration not stated)	inconclusive: 17.8 µM [inhibitor, single point]
O=C(CN1C(=O)CNC1=O)NCc1cccnc1Oc1ccccc1F	inactive
O=C1CS(=O)(=O)C2(C(=O)N(Cc3ccccc3)c3ccccc32)N1c1ccc(F)c(Cl)c1 (configuration not stated)	inconclusive: 11.2 µM [inhibitor, single point]
Cc1ncsc1CN1CCc2nc(N3CCN(C)CC3)sc2C1	inactive
O=c1[nH]c(C2CCN([S+](=O)([O-])c3cccc(C(F)(F)F)c3)CC2)nn1-c1ccccc1	inconclusive: 14.1 µM [inhibitor, single point]
CCCCn1c(CN(C)C(C)c2ccccc2OC)cnc1S(=O)(=O)CC (configuration not stated)	active: 8.91 µM
CCN(Cc1ccccc1)Cc1c(O)ccc2c(=O)c(-c3ccc(Cl)cc3)c(C(F)(F)F)oc12	inconclusive: 3.98 µM [inhibitor, partial curve, poor fit]
Cc1ccc(C)c(N2CCN(CCCNC(=O)c3cnn(-c4ccccc4)c3C3CCN(C(=O)OC(C)(C)C)CC3)CC2)c1	inconclusive: 1.12 µM [inhibitor, single point]
Cc1ccn2c(=O)cc(CSc3nnc(C)s3)nc2c1	inconclusive: 1.12 µM [inhibitor, full curve, poor fit]
COc1ccc(CN2C[C@H]3CN(Cc4nccn4C)CCN3C2=O)cc1	inactive
CCCc1cc(C(=O)N2CC[C@@H](NC(=O)c3cnccn3)[C@H](O)C2)no1	inactive
COc1cccc(S(=O)(=O)N2CCC3(CC2)N(C)C(=O)CS3=O)c1 (configuration not stated)	inactive
CCCCC(=O)Nc1ccc(OCc2cc(=O)n3c(C)csc3n2)cc1	inconclusive: 10 µM [inhibitor, single point]
CCOC(=O)c1ccc(NC(=O)C(C)Sc2nc(=O)cc(N)n2CCc2ccccc2)cc1 (configuration not stated)	inconclusive: 7.08 µM [inhibitor, partial curve, poor fit]
CC(=O)c1cccc(NC(=O)[C@H]2O[C@@H]3OC(C)(C)O[C@@H]3[C@H]3OC(C)(C)O[C@H]32)c1	inconclusive: 0.251 µM [inhibitor, full curve, poor fit]
COc1ccc(-c2nc3scc(CCNS(=O)(=O)c4ccc(Oc5ccccc5)cc4)n3n2)cc1	inactive
CN(C)c1ccc(CN2CCCC3(C2)C(=NC2CCCC2)NC(=O)N3c2cc(F)cc(F)c2)cc1 (configuration not stated)	inconclusive: 2.24 µM [inhibitor, full curve]
CCN(CC)CCCNC(=O)c1cn(CC(C)C)c(=O)c2c1c1ccccc1n2C	inconclusive: 17.8 µM [inhibitor, single point]
Cc1ccc2nc(-c3ccsc3)c(Nc3ccc(Cl)cc3)n2c1	inconclusive: 3.98 µM [inhibitor, single point]
CCSCCNC(=O)c1c(C)noc1-c1cccc(F)c1	inconclusive: 5.62 µM [inhibitor, partial curve]

SMILES	Potency
Cc1noc(-c2nc(-c3ccccc3C)no2)n1	inactive
COc1ccccc1Nc1c2c(nc3ccc(NC(=O)c4ccccc4F)cc13)CCCC2	active: 3.55 µM
Cc1cccc(-c2noc(-c3ccccc3OCC(=O)Nc3ccccc3[N+](=O)[O-])n2)c1	inconclusive: 15.8 µM [inhibitor, single point]
Cc1cccnc1CNC[C@H]1O[C@@H]2C[C@@H](CC(=O)N3CCOCC3)O[C@@H]2[C@@H]1O	inconclusive: 0.708 µM [inhibitor, full curve, poor fit]
O=C(c1ccccn1)N1CCC2(CC1)NC(=O)N(Cc1cccc(Cl)c1)C2=O	inconclusive: 10 µM [inhibitor, single point]
Cc1ccc(C(=O)N2CCC3(CC(Cc4ccccc4)=NO3)C2)cc1 (configuration not stated)	inconclusive: 20 µM [inhibitor, partial curve, poor fit]
Cc1ccc(-c2nnc3ccc(N(C)CCN(C)C)nn23)nc1	inactive
Cc1cc(C)cc(Nc2cc(C(=O)NCCCN(C)C3CCCCC3)c3ccccc3n2)c1	active: 6.31 µM
COCCc1nncn1C1CCN(S(=O)(=O)c2ccc(F)c(F)c2)CC1	inconclusive: 2.24 µM [inhibitor, partial curve]
COc1ccc(NC(=O)c2ccc3c(c2)N(S(C)(=O)=O)CC3)cc1OC	inactive
CN1C(=O)[C@H]2CN(Cc3cn[nH]c3-c3cccs3)C[C@H]2C1=O	inactive
COc1ccc(S(=O)(=O)N2CCc3nnc([C@@H]4C[C@@H](O)CN4C)n3CC2)cc1	inactive
CCc1ccc2oc(-c3ccc(NC(=O)c4cc5ccccc5o4)cc3)nc2c1	inconclusive: 1.58 µM [inhibitor, full curve, poor fit]
COCCCNC(=O)c1sc2nc(C)c(C(=O)Nc3ccc(C)cc3C)c(-c3ccccc3Cl)c2c1N	inconclusive: 4.47 µM [inhibitor, partial curve, poor fit]
CC(=O)NC[C@H]1CCN(S(=O)(=O)c2ccc3c(c2)CCC3)C[C@H]1N(C)C	inconclusive: 5.01 µM [inhibitor, partial curve]
N#CC1CCN(C(=O)c2nc(-c3cccc(C(F)(F)F)c3)c3cnccn23)CC1	inconclusive: 1.41 µM [inhibitor, full curve]
CC1(c2ccccc2)N(Cc2ccccc2)C(=O)OC12CCN(Cc1ccncc1)CC2 (configuration not stated)	inactive
Cc1ccc(C(=O)NC[C@H]2O[C@@H](CC(=O)N3CCCC3)[C@H](O)[C@@H]2O)cc1	inactive
COc1ccc(N2C(=O)C3(CCCCC3)C2C(=O)N2CCN(CC(C)C)CC2)cc1 (configuration not stated)	inconclusive: 12.6 µM [inhibitor, single point]
COc1cccc(C(=O)NC2CCN(c3cc(C(F)(F)F)nc(C)n3)CC2)c1OC	active: 11.2 µM
O=C(N[C@H]1CCN2C(=O)c3cc(-c4cccs4)ccc3NC(=O)[C@H]12)c1cccc(F)c1	inconclusive: 10 µM [inhibitor, single point]

Source: PubChem BioAssay AID1347417 (National Center for Advancing Translational Sciences (NCATS), 2020)
